Assay results: patent US20190194291A1 (Hoffmann-La Roche, published 2019)
Where “and” joins values, the source holds several entries; their conditions need not be identical. Equal values may be shown once.

Legend:
[1] = molecular target: T1, human 4-1BB (CD137) on cells (human, UniProt Q07011 24-255); experiment: flow cytometry on activated human PBMCs (anti-CD3/anti-CD28 beads, 48 h), gated on CD8 T cells
T1 construct: whole, on cells; also called human 4-1BB expressing HeLa reporter cell line

[2] = molecular target: T2, monomeric human 4-1BB avi His (human); experiment: SPR (Biacore T200, 25 C): construct captured on anti-human Fc antibody, human 4-1BB avi His 2.7-2000 nM as analyte, 1:1 Langmuir fit, average of three experiments
T2 construct: The entry holds the ectodomain together with the avi tag and the His tag; also called human 4-1BB His; Recombinant human 4-1BB avi his
Experimental: All SPR experiments were performed on a Biacore T200 at 25° C. with HBS-EP as running buffer (0.01 M HEPES pH 7.4, 0.15 M NaCl, 3 mM EDTA, 0.005% Surfactant P20, Biacore, Freiburg/Germany).
The dissociation was monitored for 120 seconds. Bulk refractive index differences were corrected for by subtracting the response obtained on reference flow cell.

human CD19 on cells = molecular target: T3, human CD19 on cells (human, UniProt P15391 20-556); experiment: flow cytometry on CD19+ WSU-DLCL2 cells, PE anti-human IgG detection
T3 construct: also called CD19-expressing tumor cells WSU-DLCL2; OCI-Ly18
T3 sequence: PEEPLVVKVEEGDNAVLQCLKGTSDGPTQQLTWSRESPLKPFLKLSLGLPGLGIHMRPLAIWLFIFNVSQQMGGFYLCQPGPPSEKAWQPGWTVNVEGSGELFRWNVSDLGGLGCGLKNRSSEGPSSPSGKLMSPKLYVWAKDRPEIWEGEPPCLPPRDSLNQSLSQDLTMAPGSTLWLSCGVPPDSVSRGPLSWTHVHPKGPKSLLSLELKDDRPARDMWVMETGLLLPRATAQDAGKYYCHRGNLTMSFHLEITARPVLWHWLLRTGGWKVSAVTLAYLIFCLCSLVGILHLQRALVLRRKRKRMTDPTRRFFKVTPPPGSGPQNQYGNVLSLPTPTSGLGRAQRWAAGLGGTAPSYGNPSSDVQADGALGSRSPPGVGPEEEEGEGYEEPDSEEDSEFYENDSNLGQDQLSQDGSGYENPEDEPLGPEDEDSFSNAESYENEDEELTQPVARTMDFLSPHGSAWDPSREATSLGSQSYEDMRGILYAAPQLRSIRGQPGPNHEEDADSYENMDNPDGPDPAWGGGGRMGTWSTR

[3] = molecular target: T1, human 4-1BB (CD137) on cells; experiment: flow cytometry on activated human PBMCs (anti-CD3/anti-CD28 beads, 48 h), gated on CD4 T cells
[4] = molecular target: T2, monomeric human 4-1BB avi His; experiment: SPR (Biacore T200, 25 C): construct captured on anti-human Fc antibody, human 4-1BB avi His as analyte; second KD column
human FAP on cells [5] = molecular target: T4, human FAP on cells (human, UniProt Q12884 1-760); experiment: flow cytometry on FAP-expressing MV-3 cells, PE anti-human IgG detection (FIGS. 9A and B)
T4 construct: also called human-FAP expressing human melanoma MV-3 cells; WM-266-4 cells

human FAP on cells [6] = molecular target: T4, human FAP on cells; experiment: flow cytometry on FAP-expressing MV-3 cells, PE anti-human IgG detection (FIGS. 9C and D)
[7] = molecular target: T1, human 4-1BB (CD137) on cells; experiment: flow cytometry on activated human PBMCs (anti-CD3/anti-CD28), gated on CD8+ T cells, PE anti-human IgG detection
[8] = molecular target: T1, human 4-1BB (CD137) on cells; experiment: flow cytometry on activated human PBMCs (anti-CD3/anti-CD28), gated on CD4+ T cells, PE anti-human IgG detection
human FAP on cells [9] = molecular target: T4, human FAP on cells; experiment: flow cytometry on FAP-expressing WM-266-4 cells, PE anti-human IgG detection (FIGS. 9A and B)
[10] = molecular target: T1, human 4-1BB (CD137) on cells; experiment: flow cytometry on activated human PBMCs (anti-CD3/anti-CD28), gated on CD4+ T cells, PE anti-human IgG detection; remark: listed apart in the source
[11] = molecular target: T1, human 4-1BB (CD137) on cells; experiment: cell-based or functional assay
human FAP on cells [12] = molecular target: T4, human FAP on cells; experiment: cell-based or functional assay
[13] = molecular target: T1, human 4-1BB (CD137) on cells; experiment: flow cytometry on activated human PBMCs (anti-CD3/anti-CD28), gated on CD8+ T cells, PE anti-human IgG detection; remark: listed apart in the source
[14] = molecular target: T1, human 4-1BB (CD137) on cells; experiment: flow cytometry on activated human PBMCs (anti-CD3/anti-CD28), gated on gamma-delta T cells, PE anti-human IgG detection
[15] = molecular target: T1, human 4-1BB (CD137) on cells; experiment: as above; remark: listed apart in the source
human FAP on cells [16] = molecular target: T4, human FAP on cells; experiment: flow cytometry on FAP-expressing WM-266-4 cells, PE anti-human IgG detection (FIGS. 9C and D)

B1: monovalent CD19 (8B8-2B11)-targeted 4-1BB ligand trimer-containing Fc (kih) fusion antigen binding molecule (Construct 4.11) (Fc fusion)
chain: DKTHTCPPCPAPEAAGGPSVFLFPPKPKDTLMISRTPEVTCVVVDVSHEDPEVKFNWYVDGVEVHNAKTKPREEQYNSTYRVVSVLTVLHQDWLNGKEYKCKVSNKALGAPIEKTISKAKGQPREPQVCTLPPSRDELTKNQVSLSCAVKGFYPSDIAVEWESNGQPENNYKTTPPVLDSDGSFFLVSKLTVDKSRWQQGNVFSCSVMHEALHNHYTQKSLSLSPGGGGGSGGGGSREGPELSPDDPAGLLDLRQGMFAQLVAQNVLLIDGPLSWYSDPGLAGVSLTGGLSYKEDTKELVVAKAGVYYVFFQLELRRVVAGEGSGSVSLALHLQPLRSAAGAAALALTVDLPPASSEARNSAFGFQGRLLHLSAGQRLGVHLHTEARARHAWQLTQGATVLGLFRVTPEIPAGLGGGGSGGGGSREGPELSPDDPAGLLDLRQGMFAQLVAQNVLLIDGPLSWYSDPGLAGVSLTGGLSYKEDTKELVVAKAGVYYVFFQLELRRVVAGEGSGSVSLALHLQPLRSAAGAAALALTVDLPPASSEARNSAFGFQGRLLHLSAGQRLGVHLHTEARARHAWQLTQGATVLGLFRVTPEIPAGL
heavy: QVQLVQSGAEVKKPGASVKVSCKASGYTFTDYIMHWVRQAPGQGLEWMGYINPYNDGSKYTEKFQGRVTMTSDTSISTAYMELSRLRSDDTAVYYCARGTYYYGPQLFDYWGQGTTVTVSSASTKGPSVFPLAPSSKSTSGGTAALGCLVKDYFPEPVTVSWNSGALTSGVHTFPAVLQSSGLYSLSSVVTVPSSSLGTQTYICNVNHKPSNTKVDKKV[human IgG1 Fc with changes omitted here]GGGGSGGGGSREGPELSPDDPAGLLDLRQGMFAQLVAQNVLLIDGPLSWYSDPGLAGVSLTGGLSYKEDTKELVVAKAGVYYVFFQLELRRVVAGEGSGSVSLALHLQPLRSAAGAAALALTVDLPPASSEARNSAFGFQGRLLHLSAGQRLGVHLHTEARARHAWQLTQGATVLGLFRVTPEIPAGL
light: DIVMTQTPLSLSVTPGQPASISCKSSQSLETSTGTTYLNWYLQKPGQSPQLLIYRVSKRFSGVPDRFSGSGSGTDFTLKISRVEAEDVGVYYCLQLLEDPYTFGQGTKLEIKRTVAAPSVFIFPPSDEQLKSGTASVVCLLNNFYPREAKVQWKVDNALQSGNSQESVTEQDSKDSTYSLSSTLTLSKADYEKHKVYACEVTHQGLSSPVTKSFNRGEC
notes: Human IgG1 Fc knob-into-hole with P329G, L234A, L235A; one CD19(8B8-2B11) Fab on the knob chain
**Q.** Which EC50 [1] does the source give for B1 here?
**A.** 0.05 µg/mL and 0.32 nM

**Q.** And the Kd [2]?
**A.** 369 nM

**Q.** And the koff [2]?
**A.** 0.0272 s⁻¹

**Q.** And the kon [2]?
**A.** 73700 M⁻¹ s⁻¹

**Q.** What about the EC50 (human CD19 on cells) of the same binder?
**A.** 0.26 nM and 0.04 µg/mL

**Q.** And the EC50 [3]?
**A.** 0.13 nM and 0.02 µg/mL

**Q.** What about the “KD” value [4] of the same binder?
**A.** 17.6 nM

B2: monovalent FAP-targeted 4-1BB ligand (71-248) trimer-containing Fc (kih) fusion antigen binding molecule (Construct 2.4) (Fc fusion)
chain 1: REGPELSPDDPAGLLDLRQGMFAQLVAQNVLLIDGPLSWYSDPGLAGVSLTGGLSYKEDTKELVVAKAGVYYVFFQLELRRVVAGEGSGSVSLALHLQPLRSAAGAAALALTVDLPPASSEARNSAFGFQGRLLHLSAGQRLGVHLHTEARARHAWQLTQGATVLGLFRVTPEIPAGLGGGGSGGGGSREGPELSPDDPAGLLDLRQGMFAQLVAQNVLLIDGPLSWYSDPGLAGVSLTGGLSYKEDTKELVVAKAGVYYVFFQLELRRVVAGEGSGSVSLALHLQPLRSAAGAAALALTVDLPPASSEARNSAFGFQGRLLHLSAGQRLGVHLHTEARARHAWQLTQGATVLGLFRVTPEIPAGLGGGGSGGGGSRTVAAPSVFIFPPSDRKLKSGTASVVCLLNNFYPREAKVQWKVDNALQSGNSQESVTEQDSKDSTYSLSSTLTLSKADYEKHKVYACEVTHQGLSSPVTKSFNRGE[human IgG1 Fc with changes omitted here]
chain 2: REGPELSPDDPAGLLDLRQGMFAQLVAQNVLLIDGPLSWYSDPGLAGVSLTGGLSYKEDTKELVVAKAGVYYVFFQLELRRVVAGEGSGSVSLALHLQPLRSAAGAAALALTVDLPPASSEARNSAFGFQGRLLHLSAGQRLGVHLHTEARARHAWQLTQGATVLGLFRVTPEIPAGLGGGGSGGGGSASTKGPSVFPLAPSSKSTSGGTAALGCLVEDYFPEPVTVSWNSGALTSGVHTFPAVLQSSGLYSLSSVVTVPSSSLGTQTYICNVNHKPSNTKVDEKVEPKSC
heavy: EVQLLESGGGLVQPGGSLRLSCAASGFTFSSYAMSWVRQAPGKGLEWVSAIIGSGASTYYADSVKGRFTISRDNSKNTLYLQMNSLRAEDTAVYYCAKGWFGGFNYWGQGTLVTVSSASTKGPSVFPLAPSSKSTSGGTAALGCLVKDYFPEPVTVSWNSGALTSGVHTFPAVLQSSGLYSLSSVVTVPSSSLGTQTYICNVNHKPSNTKVDKKVEPKSCDKTHTCPPCPAPEAAGGPSVFLFPPKPKDTLMISRTPEVTCVVVDVSHEDPEVKFNWYVDGVEVHNAKTKPREEQYNSTYRVVSVLTVLHQDWLNGKEYKCKVSNKALGAPIEKTISKAKGQPREPQVCTLPPSRDELTKNQVSLSCAVKGFYPSDIAVEWESNGQPENNYKTTPPVLDSDGSFFLVSKLTVDKSRWQQGNVFSCSVMHEALHNHYTQKSLSLSPGK
light: EIVLTQSPGTLSLSPGERATLSCRASQSVTSSYLAWYQQKPGQAPRLLINVGSRRATGIPDRFSGSGSGTDFTLTISRLEPEDFAVYYCQQGIMLPPTFGQGTKVEIKRTVAAPSVFIFPPSDEQLKSGTASVVCLLNNFYPREAKVQWKVDNALQSGNSQESVTEQDSKDSTYSLSSTLTLSKADYEKHKVYACEVTHQGLSSPVTKSFNRGEC
notes: FAP-targeted variant of Control D; 4-1BBL moieties fused N-terminally to crossed CL/CH1 with charged residues; also called positive control construct 2.4
**Q.** Which EC50 (human FAP on cells [5]) does the source give for B2 here?
**A.** 2.16 nM

**Q.** What about the EC50 (human FAP on cells [6]) of the same binder?
**A.** 2.21 nM

**Q.** And the EC50 [7]?
**A.** 0.23 nM

**Q.** What about the EC50 [8] of the same binder?
**A.** 0.41 nM

**Q.** What about the EC50 (human FAP on cells [9]) of the same binder?
**A.** 3.43 nM

**Q.** What about the EC50 [10] of the same binder?
**A.** 0.1 nM

**Q.** And the “EC50 [nM] of NFkB-activation-induced Luciferase activity-curves, on 3T3-huFAP” value [11]?
**A.** 0.06 nM

**Q.** What about the “EC50 [nM] of NFkB-activation-induced Luciferase activity-curves, on MV-3” value [11] of the same binder?
**A.** 0.15 nM

**Q.** And the “EC50 [nM] of CD25-upregulation on CD8+ T cells” value (human FAP on cells [12])?
**A.** 0.03 nM

**Q.** And the “EC50 [nM] of CD137 (4-1BB)-upregulating on CD8+ T cells” value (human FAP on cells [12])?
**A.** 0.08 nM

**Q.** What about the EC50 [13] of the same binder?
**A.** 1.13 nM

**Q.** And the EC50 [14]?
**A.** 0.64 nM

**Q.** And the EC50 [15]?
**A.** 0.11 nM

**Q.** What about the EC50 (human FAP on cells [16]) of the same binder?
**A.** 1.18 nM
